From the supplement of paper PMC10126150
Values marked as one replicate rest on one cluster of the flow cell; about a third of the high ones do not repeat.

Test system: ATP
Assay: switch fluorescence ratio, 500 uM ATP over buffer (Cy3 cluster intensity, sum of 5 cycles each) (fold (ratio)); higher = stronger signal-on switching upon ATP binding; sequences stand for … in TCGTCGGCAGCGTCAGATGTGTATAAGAGACAGTTTTTTTTTTTTTTTTTTTTTTTTT…TC
Conditions: aptamer strand: ATP DNA aptamer (quencher-CACCTGGGGGAGTATTGCGGAGGAAGG + anchor), 100 nM annealed; ATP concentration: 500 uM; one replicate
Method in brief: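 Between each of five buffer/ATP cycles, the flow-cell was stripped with NaOH and re-annealed. Each cycle imaged Cy3-labelled switching-strand clusters, annealed to 100 nM quencher-labelled ATP aptamer on a modified Illumina MiSeq flow-cell, first in selection buffer and then after 15 min with 500 uM ATP at 22 °C. The fluorescence ratio is summed target-cycle over summed buffer-cycle Cy3 intensity per cluster, averaged per switch-domain sequence, with clusters outside 100-1000 RFU excluded.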
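Note: ATP exposure 15 min at 22 °C before imaging.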

Sequence	switch fluorescence ratio
AGGAGAGACT	1.01
CGGAGGATGT	1.03
GCTGTTTATG	0.985
ATGGCTGAGC	1.46
GGGAGACACA	0.976
TAGTTACTAA	1
CCGCGTCGGC	1.54
GAGGGCCTAA	1.02
CCTAGGCTAA	2.16
CTATCGGATC	0.992
ACGTAGTGAT	1.04
ACGGCTGTAG	1
TCGGGAGGAG	1.04
TTCATACAAG	0.972
ATATTCGGTT	1
TGGATGTTC	0.96
GTGGGAAATT	1.01
GCAGCCCTTG	0.972
TATCCTGCCC	1.04
GCTGCGGTTC	1.12
TAAACAAACT	1.4
ATGGGATACG	1.01
AGTTGCATCT	1.01

Sequence	switch fluorescence ratio
TCAGATTTTC	1.01
TTGGTTGTG	1.02
ACAAATTAAT	1
CAATTAAGG	0.999
TCCCAGTAAG	1.05
GTCATTGGGC	0.976
GGACAGTCTT	1.02
AAGAGGACAC	1.12
TTTGGAGGCG	0.927
TATTGGGACG	0.968
CTGAAGCTGA	1.46
TTAATCAGGC	1.07
TTTCGGGCTA	0.992
AGCTGGGGAC	1.02
ACATGGATAC	1.13
TAAGGCCCGT	0.97
ACACGTTAGG	1.03
CCCATACTTT	1.04
CCCATTTGAG	1.05
AGAATGGTAA	1.03
ACTGTTTGAA	0.979
CTCGTCTAGC	1.06
GTGGGCGTAC	1.62

Sequence	switch fluorescence ratio
CTATTCGTAA	1.16
CTGAACCCTT	1.03
GCGTAATCCA	1.03
TAACTAAAAA	0.999
GCGATTAGGG	0.98
GATACATCTA	0.992
GTATCGTCAC	1.02
TTCCCGGGCG	1.06
GTTAGCCTTT	1.02
GACATGGGAC	1.03
TCTGTTAGCC	1.02
CGGTATACGG	1.04
AATACGCCAA	1.58
CGTGGAGAGA	1.01
TGCGACGTTT	0.975
CCGTTGGAGA	1.05
AGTTAGTGCC	0.986
AAATATACAA	1.13
AATATGAATC	1.03
TTCCAAGTAT	1.03
GACGCGTTTG	1.02
CAACGCTAGA	1.26
CCATCAAAGG	1.04

Sequence	switch fluorescence ratio
CAATGGGG	1.01
TTACAACGCA	1.14
CGTGTCTTCG	1.02
ACACTCCTTT	1.03
CGCTGTAAAT	1.03
ACGCTACGCG	1.04
CCGAAGGGTG	1.2
TAAACGTGTG	0.984
ACGCGGCTC	1.12
CATCCAAGGT	1.13
GCTCCCTTGA	1.14
ACCAGCTCTG	1
AGCTACCGCG	0.967
CGTGTTTACA	0.978
CTTGTTAAAG	0.998
CGGTTTTAG	0.985
AACCCTATA	1.05
GACGTCGGCC	1.02
GTTGGGCTGG	1
CCACTTAAAG	1.01
TACTCGATAT	0.999
CCGAGCCCGC	1.36
ATGGGTGAGC	0.981

Sequence	switch fluorescence ratio
ACAGTATAGG	1.08
TGAGCCTAC	0.991
CTAACCTTGG	1.06
CACCGAAGAG	1.05
GATAAGGTAA	1.01
GCGTATTCCA	0.976
TTTAGATTAG	1
AAGGTCTATA	0.991
GTAATGAGTC	0.984
AAGAGCTGTG	1.01
TGGTGCCTCG	1.02
TACGCACGT	1.42
CTTTGCAAAA	1.15
TCTTGGATG	0.974
GGTGGGACAT	0.952
CGTAGGAATG	1.01
CGAGCCCTCG	1.02
TTGCCGTGGA	0.991
GGGGCGCATT	1.15
GGTGAAAATA	0.977
TAATAACGAT	1
AATGAACAGC	1
CAATAAGGAA	1

Sequence	switch fluorescence ratio
CCAATAGGCT	1.01
AGGAGACGTT	1.02
AGGGCTAAAA	0.993
TATTAACACC	1.02
GTTCTCGGTA	1.03
TATCGGCTAA	0.994
GCGCGGTTCG	1.06
TTGTGGGTGC	0.958
CACACAAGCC	1.09
ACCGCTCCCT	1.39
GCCAAGTGCT	0.994
CACAGTATTA	1.07
TCGCGGCGGG	1.02
TTAGCCTTC	1.07
CCTGGCAAGC	1.32
AAGGTCTCAA	0.967
GATTCGGATA	0.996
AAAACATTCA	1.15
GCTGGATTTG	1
ATAACTATAT	1.06
ACTTCAGGTA	1.02
GTATTAAGAT	0.982
GCCCGATAGG	0.974

Sequence	switch fluorescence ratio
AGACGTTAAA	1.04
ACAGCATGAG	1.02
TCAGTCATCC	1.09
CCAGTTACAC	0.996
AAGTTCTGCG	0.956
TTGGAAACTA	1.13
TAACAAGTTG	0.973
GAATTACCTG	1
GTGACGGTAG	0.971
CGGAATGTGG	0.943
AATATTGGTT	1.24
TCTAAGTGCG	1.05
GGTGGTTCCG	0.978
AGTGATGGAA	1.03
GCGTTGGTAT	0.998
AAGCACCGAC	1.45
CTCATGGGAA	0.986
GAGTGATTGT	0.966
CCCGGAGGT	0.964
